{"source": "the supplement of paper PMC10600219", "note": "Structures can show the parent of a compound that is named as a salt. In all, about 2,800 compounds were measured (“cell viability relative to vehicle”: median about 0.98, lowest 2% from about 0.45 on). Some of the results follow."}
{"tested_on": "NCI-H2228 alectinib-DTP", "assay": "cell viability relative to vehicle (fraction of vehicle); NCI-H2228 is an ALK-positive lung cancer line and DTP means drug-tolerant persister; higher = less growth inhibition", "conditions": "100 nM; treatment time 6 days", "method_in_brief": "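Values give cell viability as a fraction of vehicle-treated cells. Parental and drug-tolerant persister NCI-H2228 cells (persisters made with 1000 nM of a targeted drug for 13 days) were exposed in 384-well plates to the 3114-agent TargetMol anti-cancer compound library at 100 nM, with DMSO as vehicle. ATP was then read after 6 days by the CellTiter-Glo 3D Cell Viability Assay.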"}
{"smiles": "COc1ccc(C(Cl)=C(c2ccc(OC)cc2)c2ccc(OC)cc2)cc1", "note": "[Chlorotrianisene]", "cell viability": 0.925}
{"smiles": "Cc1oncc1C(=O)Nc1ccc(C(F)(F)F)cc1", "note": "[Leflunomide]", "cell viability": 0.981}
{"smiles": "O=C(O)c1cccnc1Nc1cccc(C(F)(F)F)c1", "note": "[Niflumic acid]", "cell viability": 1.08}
{"smiles": "O=C1[C@H](Cc2ccc(O)cc2)N2C(=O)CCN(C(=O)NCc3ccccc3)[C@H]2CN1Cc1cccc2ccccc12", "cell viability": 1.07}
{"smiles": "COc1ccc(-c2oc3cc(O)cc(O)c3c(=O)c2O)cc1", "note": "[kaempferide]", "cell viability": 1.06}
{"smiles": "CCn1c2ccccc2c2cc(Nc3ccnc(NCCCN4CCOCC4)n3)ccc21", "cell viability": 0.949}
{"smiles": "CC1(C)S[C@@H]2[C@H](NC(=O)[C@H](NC(=O)N3CCNC3=O)c3ccccc3)C(=O)N2[C@H]1C(=O)O", "note": "[Azlocillin sodium]", "cell viability": 0.986}
{"smiles": "CC(C)c1ccc2oc3nc(N)c(C(=O)O)cc3c(=O)c2c1", "note": "[Amlexanox]", "cell viability": 0.992}
{"smiles": "COC(=O)Nc1nc2cc(C(=O)c3ccccc3)ccc2[nH]1", "note": "[Mebendazole]", "cell viability": 0.908}
{"smiles": "Nc1nc2c(ncn2[C@@H]2O[C@H](CO)[C@@H](O)[C@H]2O)c(=O)[nH]1", "note": "[Guanosine]", "cell viability": 0.994}
{"smiles": "Clc1cnccn1", "note": "[2-Chloropyrazine]", "cell viability": 0.962}
{"smiles": "Cc1c(NC(=O)c2cc(C(N)=O)nc3cc(F)ccc23)c(C(F)(F)F)nn1Cc1ccc(C#N)cc1", "cell viability": 0.869}
{"smiles": "Cc1cc2c(cc1S(N)(=O)=O)S(=O)(=O)CCC2", "note": "[Meticrane]", "cell viability": 0.903}
{"smiles": "COCCOc1cnc2ccn([C@H](C)c3nnc4c(F)cc(-c5cnn(C)c5)cn34)c(=O)c2c1", "cell viability": 1.04}
{"smiles": "COc1ccc2c(C)nc(Nc3nc(C)c(C)c(=O)[nH]3)nc2c1", "note": "[Madrasin]", "cell viability": 1.04}
{"smiles": "Cc1cc(-c2nnc(N)nc2-c2ccc(F)cc2)cc(Cl)n1", "cell viability": 1.1}
{"smiles": "CC(C)N(C[C@H]1O[C@@H](n2cnc3c(N)ncnc32)[C@H](O)[C@@H]1O)[C@H]1C[C@@H](CCc2nc3cc(C(C)(C)C)ccc3[nH]2)C1", "note": "[Pinometostat]", "cell viability": 1.04}
{"smiles": "O=S(=O)(c1ccc(Cl)cc1)N1CCN(c2ccnc3cc(Cl)ccc23)CC1", "cell viability": 0.965}
{"smiles": "C[N+]1(C)[C@@H]2CC[C@H]1C[C@@H](OC(=O)C(O)c1ccccc1)C2", "note": "(some centres undefined) [Homatropine Methylbromide]", "cell viability": 1.22}
{"smiles": "COc1ccc(-c2cc(=O)c3c(O)cc(O)c(-c4cc(-c5cc(=O)c6c(O)cc(O)cc6o5)ccc4OC)c3o2)cc1", "cell viability": 0.974}
{"smiles": "Cc1c(C)c2c(c(C)c1O)CCC(C)(COc1ccc(CC3SC(=O)NC3=O)cc1)O2", "note": "(centres undefined) [Troglitazone]", "cell viability": 0.922}
{"smiles": "CSc1ccc2c(c1)C(N1CCN(C)CC1)Cc1ccccc1S2", "note": "(centres undefined) [Methiothepin mesylate]", "cell viability": 1.14}
{"smiles": "CC(C)(C)C(=O)Oc1ccc(S(=O)(=O)Nc2ccccc2C(=O)NCC(=O)O)cc1", "note": "[Sivelestat]", "cell viability": 1.11}
{"smiles": "C[C@H]1COc2c(C3(N)CC3)c(F)cc3c(=O)c(C(=O)O)cn1c23", "note": "[Pazufloxacin Mesylate]", "cell viability": 0.983}
{"smiles": "O=C(NCCCn1ccnc1)c1cc(-c2ccco2)on1", "cell viability": 1.03}
{"smiles": "C[N+]1(C)[C@@H]2C[C@@H](OC(=O)C(O)(c3cccs3)c3cccs3)C[C@H]1[C@@H]1O[C@@H]12", "note": "[Tiotropium bromide]", "cell viability": 1}
{"smiles": "Clc1ccc(NN=C(c2ccccc2)c2ccccn2)nc1", "cell viability": 0.74}
{"smiles": "O=C(/C=C/c1ccc2ccccc2n1)c1ccncc1", "cell viability": 0.975}
{"smiles": "COc1cc(O)c2c(c1)oc(=O)c1c3cc(O)c(O)cc3oc21", "note": "[Wedelolactone]", "cell viability": 0.924}
{"smiles": "COC(=O)C[C@H](NC(=O)[C@H](C)NC(=O)[C@@H](NC(=O)OCc1ccccc1)C(C)C)C(=O)CF", "cell viability": 1}
{"smiles": "CCCCCCCCCCCCCC(=S)NCCCC[C@H](NC(=O)OCc1ccccc1)C(=O)Nc1ccccc1", "note": "[Thiomyristoyl]", "cell viability": 1.11}
{"smiles": "CN(C)CCCN1c2ccccc2Sc2ccccc21", "note": "[Promazine hydrochloride]", "cell viability": 1.06}
{"smiles": "COc1cc2cc(Oc3ccc4ccc(=O)oc4c3)c(=O)oc2cc1O", "note": "[Daphnoretin]", "cell viability": 1.11}
{"smiles": "CC(C)(C(=O)O)c1ccc(C(O)CCCN2CCC(C(O)(c3ccccc3)c3ccccc3)CC2)cc1", "note": "(centres undefined) [Fexofenadine hydrochloride]", "cell viability": 1.02}
{"smiles": "O=c1cc(N2CCOCC2)oc2c(-c3cccc4c3sc3ccccc34)cccc12", "cell viability": 0.898}
{"smiles": "COc1ccc([C@@H]2CC(=O)c3c(O)cc(O[C@@H]4O[C@H](CO[C@@H]5O[C@@H](C)[C@H](O)[C@@H](O)[C@H]5O)[C@@H](O)[C@H](O)[C@H]4O)cc3O2)cc1O", "note": "[Hesperidin]", "cell viability": 1.15}
{"smiles": "Cc1cc2cc(Oc3ccnc(Nc4cccc(CS(=O)(=O)NCCN(C)C)c4)n3)ccc2[nH]1", "note": "[Sulfatinib]", "cell viability": 1.07}
{"smiles": "COc1cccc(-c2cc(NCc3ccc4c(c3)OCO4)nc(N)n2)c1", "note": "[Wnt agonist 1]", "cell viability": 0.701}
{"smiles": "Cc1ccc(-c2ccc(F)cc2COc2ccc(CCC(=O)O)cc2)cc1", "cell viability": 1.01}
{"smiles": "COCc1c(-c2ccc(NC(=O)Nc3cc(C(F)(F)F)ccc3F)c(F)c2)c2c(N)ncnn2c1CN1CCOCC1", "cell viability": 0.632}
{"smiles": "CO/N=C(\\C(=O)N[C@@H]1C(=O)N2C(C(=O)OCOC(=O)C(C)(C)C)=C(/C=C\\c3scnc3C)CS[C@H]12)c1csc(N)n1", "note": "[Cefditoren pivoxil]", "cell viability": 0.916}
{"smiles": "CCC(=O)N1CCN(c2ccc(-n3c(=O)ccc4cnc5ccc(-c6cnc7ccccc7c6)cc5c43)cc2C(F)(F)F)CC1", "note": "[Torin 1]", "cell viability": 0.437}
{"smiles": "c1ccc2c(Cc3c[nH]c4ccccc34)c[nH]c2c1", "note": "[3,3'-Diindolylmethane]", "cell viability": 0.938}
{"smiles": "C=C1C(=O)O[C@@H]2/C=C(\\C)CC/C=C(\\C)CC[C@@H]12", "note": "[Costunolide]", "cell viability": 0.964}
{"smiles": "O=C(Nc1ccccc1)c1cc([N+](=O)[O-])ccc1Cl", "cell viability": 0.995}
{"smiles": "Oc1ccc2c(c1)OCO2", "note": "[Sesamol]", "cell viability": 1.02}
{"smiles": "Cc1onc(-c2ccccc2)c1-c1ccc(S(N)(=O)=O)cc1", "note": "[Valdecoxib]", "cell viability": 1.03}
{"smiles": "O=C(O)[C@H]1O[C@@H](Oc2cc3oc(-c4ccc(O)cc4)cc(=O)c3c(O)c2O)[C@H](O)[C@@H](O)[C@@H]1O", "note": "[Scutellarin]", "cell viability": 0.977}
{"smiles": "C[C@]12CCC(=O)C=C1CC[C@@H]1[C@@H]2[C@@H](O)C[C@@]2(C)[C@H]1CC[C@]2(O)C(=O)CO", "note": "[Hydrocortisone]", "cell viability": 0.634}
